Experimental data taken from the supplement of paper PMC9446081.
In all, about 39,000 compounds went through this assay and about 220 (0.56%) showed activity. The list shows a part of the results.
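Note: static incubation at 37 °C against the wild-type strain, values averaged over two biological replicates.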

These compounds were tested on Escherichia coli K-12 BW25113 (assay: relative growth (OD600 normalised to plate interquartile mean) (fraction); higher = less growth inhibition, active = 0.2 or less). Conditions: 50 µM; LB; incubation time: overnight (16-24 h).
In the case of `O=C(Nc1ccc(-c2nc3ccc(NC(=O)c4ccccc4[N+](=O)[O-])cc3[nH]2)cc1)c1ccccc1[N+](=O)[O-]`, the relative growth is reported as inactive: 1.03.
For `CC(C)NC(=O)NCC[C@@H]1CC[C@@H](NC(=O)CN(C)C)[C@@H](CO)O1`, the relative growth was inactive: 1.02.
For `C[C@@H]1CCCCO[C@@H](CN(C)S(=O)(=O)c2ccc(F)cc2)[C@H](C)CN([C@@H](C)CO)C(=O)c2cc(NS(=O)(=O)c3cn(C)cn3)ccc2O1`, the relative growth was inactive: 1.01.
`C[C@H]1CN([C@@H](C)CO)S(=O)(=O)c2ccc(C#CC3(O)CCCC3)cc2O[C@H]1CN(C)C(=O)Cc1ccccc1` was tested, and the relative growth was inactive: 1.01.
With `Cc1ccc(S(=O)(=O)Nc2ccc3c(c2)CC(=O)N([C@H](C)CO)C[C@H](C)[C@H](CN(C)S(=O)(=O)c2ccccc2)O3)cc1` the relative growth was inactive: 0.998.
With `COc1ccc(CN(C)C[C@H]2OCCCC[C@H](C)Oc3ccc(NC(=O)Nc4ccc(C(F)(F)F)cc4)cc3C(=O)N([C@@H](C)CO)C[C@@H]2C)cc1` the relative growth was inactive: 0.977.
In the case of `C[C@@H]1CN([C@H](C)CO)C(=O)c2cc(NC(=O)Cn3cnnn3)ccc2O[C@H]1CN(C)C(=O)Nc1ccccc1`, the relative growth is reported as inactive: 0.985.
In the case of `O=c1[nH]c(=O)n(C2CC(O)C(CO)O2)cc1F` (stereo not given), the relative growth is reported as active: 0.0526.
With `CC(=O)N[C@@H](CCCNC(=N)N)C(=O)N[C@H]1CSSC[C@@H](C(N)=O)NC(=O)[C@H](Cc2c[nH]c3ccccc23)NC(=O)[C@H](CCCNC(=N)N)NC(=O)[C@@H](Cc2ccccc2)NC(=O)[C@H](Cc2cnc[nH]2)NC(=O)[C@@H](C)NC1=O` the relative growth was inactive: 1.01.
For `CC(=O)N(C)C[C@H]1Oc2ncc(C#C[C@H](C)O)cc2C(=O)N([C@H](C)CO)C[C@H]1C`, the relative growth was inactive: 0.976.
For `C[C@H](CO)N1C[C@H](C)[C@H](CN(C)CC2CCCCC2)Oc2ccc(NC(=O)Cc3cn(C)c4ccccc34)cc2C1=O`, the relative growth was inactive: 0.988.
`COc1ccccc1C#Cc1cnc2c(c1)C(=O)N([C@@H](C)CO)C[C@@H](C)[C@H](CN(C)S(=O)(=O)c1cn(C)cn1)O2` was tested, and the relative growth was inactive: 1.02.
With `O=C(C[C@@H]1CC[C@@H]2[C@H](COC[C@H](O)CN2C(=O)Nc2cc(Cl)cc(Cl)c2)O1)N1CCOCC1` the relative growth was inactive: 0.972.
In the case of `COc1ccc(C#Cc2ccc3c(c2)O[C@H](CN(C)C(=O)c2ccccn2)[C@@H](C)CN([C@@H](C)CO)S3(=O)=O)cc1`, the relative growth is reported as inactive: 1.02.
For `CCCNC(=O)Nc1ccc2c(c1)C(=O)N(C)C[C@@H](OC)[C@H](C)CN(Cc1ccc(-c3ccccn3)cc1)[C@H](C)CO2`, the relative growth was inactive: 0.996.
`CCS(=O)(=O)Nc1ccc2c(c1)C(=O)N(C)[C@@H]1CC[C@@H](CC(=O)NCc3ccc(OC)cc3)O[C@H]1CO2` was tested, and the relative growth was inactive: 0.994.
In the case of `CCOc1ccc(C(=O)Nc2ccc(N3CCN(C(=O)c4cccs4)CC3)c(Cl)c2)cc1Br`, the relative growth is reported as inactive: 1.
`COc1ccc(NC(=O)N(C)C[C@H]2OCc3ccccc3-c3c(n(C)c4ccccc34)C(=O)N([C@@H](C)CO)C[C@H]2C)cc1` was tested, and the relative growth was inactive: 1.01.
`N=C(N)NCc1cn(CC(=O)N2CCN(c3ccccc3)CC2)nn1` was tested, and the relative growth was inactive: 0.995.
In the case of `COc1ccc(S(=O)(=O)N(C)C[C@@H]2Oc3c(cccc3N(C)C)C(=O)N([C@H](C)CO)C[C@@H]2C)cc1`, the relative growth is reported as inactive: 0.987.
In the case of `C[C@@H]1CN([C@@H](C)CO)S(=O)(=O)c2ccc(C#Cc3ccccn3)cc2O[C@H]1CN(C)Cc1ccccc1`, the relative growth is reported as inactive: 1.03.
For `C[C@@H]1CCCCO[C@H](CN(C)CC2CCCCC2)[C@H](C)CN([C@@H](C)CO)C(=O)c2cc(NC(=O)c3ccncc3)ccc2O1`, the relative growth was inactive: 1.
With `O=C(C[C@@H]1C[C@H]2c3cc(NS(=O)(=O)c4ccc(F)cc4)ccc3O[C@H]2[C@H](CO)O1)NCc1ccccn1` the relative growth was inactive: 1.03.
In the case of `CO[C@H](CN(C)S(=O)(=O)c1ccc(Cl)cc1)[C@H](C)CN([C@H](C)CO)S(=O)(=O)c1cccc(Cl)c1`, the relative growth is reported as inactive: 0.989.
In the case of `Cc1noc(C)c1NC(=O)Nc1ccc2c(c1)C(=O)N([C@@H](C)CO)C[C@H](C)[C@H](CN(C)Cc1ccc(C(F)(F)F)cc1)O2`, the relative growth is reported as inactive: 1.01.
With `C[C@@H]1CN([C@@H](C)CO)C(=O)c2c(c3ccccc3n2C)-c2ccccc2CO[C@H]1CN(C)Cc1ccc(O)cc1` the relative growth was inactive: 0.992.
In the case of `CN(C)CCCNC(=O)C[C@H]1C=C[C@@H](NS(=O)(=O)c2ccccc2)[C@@H](CO)O1`, the relative growth is reported as inactive: 0.996.
In the case of `Cc1cc(S(=O)(=O)NCC(=O)O)ccc1F`, the relative growth is reported as inactive: 1.01.
With `NC1=N[C@H]2CS[C@@H](CCCCC(=O)O)[C@H]2N1` the relative growth was inactive: 1.01.
In the case of `C[C@@H]1CN([C@@H](C)CO)C(=O)c2cccc(NC(=O)C3CCCCC3)c2O[C@H]1CN(C)S(=O)(=O)c1cn(C)cn1`, the relative growth is reported as inactive: 1.01.
With `Cc1ccc(S(=O)(=O)Nc2ccc3c(c2)C(=O)N([C@H](C)CO)C[C@H](C)[C@@H](CN(C)S(=O)(=O)c2cccs2)O3)cc1` the relative growth was inactive: 1.03.
In the case of `COc1cccc(S(=O)(=O)N2C[C@H](O)COC[C@H]3O[C@@H](CC(=O)N4CCN(c5ccccc5)CC4)CC[C@@H]32)c1`, the relative growth is reported as inactive: 1.01.
For `C[C@@H]1CN([C@@H](C)CO)C(=O)c2cccc(NC(=O)c3cnccn3)c2O[C@@H]1CN(C)S(=O)(=O)c1ccc(Cl)cc1`, the relative growth was inactive: 0.991.
For `CC(C)NC(=O)N(C)C[C@@H]1Oc2ccc(NC(=O)CCCN(C)C)cc2CC(=O)N([C@H](C)CO)C[C@@H]1C`, the relative growth was inactive: 0.991.
In the case of `Cc1ccc(S(=O)(=O)Nc2ccc3c(c2)C(=O)N([C@H](C)CO)C[C@@H](C)[C@H](CN(C)C(=O)Nc2cccc4ccccc24)OCCCC[C@@H](C)O3)cc1`, the relative growth is reported as inactive: 1.01.
In the case of `COc1ccc([Si](C)(C)[C@H]2[C@H](CC(=O)N(CCO)Cc3ccccc3)O[C@@]3(C(=O)N(Cc4ccc(N5C(=O)c6cccc7cccc5c67)cc4)c4ccccc43)[C@@H]2C)cc1`, the relative growth is reported as inactive: 1.04.
In the case of `C[C@@H]1CCCCO[C@@H](CN(C)Cc2ccc(Cl)c(Cl)c2)[C@H](C)CN([C@H](C)CO)C(=O)c2cc(NC(=O)Nc3ccccc3)ccc2O1`, the relative growth is reported as inactive: 1.02.
For `C[C@H](CO)N1C[C@H](C)[C@@H](CN(C)Cc2ccc(C(=O)Nc3ccccc3N)cc2)Oc2ccc(NC(=O)CCC(F)(F)F)cc2C1=O`, the relative growth was inactive: 0.963.
With `Cc1noc(C)c1NC(=O)Nc1ccc2c(c1)C(=O)N([C@H](C)CO)C[C@H](C)[C@H](CN(C)CC1CCCCC1)OCCCC[C@H](C)O2` the relative growth was inactive: 0.994.
With `O=C1CNC(=O)N1C1CCNCC1` the relative growth was inactive: 0.999.
In the case of `CCOC(=O)NNc1nncc2ccccc12.Cl`, the relative growth is reported as inactive: 1.05.
With `CC1(C(=O)O)CCC2(C)CCC3(C)C(=CC(=O)C4C5(C)CCC(OC6OC(C(=O)O)C(O)C(O)C6OC6OC(C(=O)O)C(O)C(O)C6O)C(C)(C)C5CCC43C)C2C1` (stereo not given) the relative growth was inactive: 0.97.
In the case of `Cc1ccc(S(=O)(=O)N(C)C[C@@H]2Oc3ccc(NS(=O)(=O)c4c(C)noc4C)cc3CC(=O)N([C@H](C)CO)C[C@@H]2C)cc1`, the relative growth is reported as inactive: 0.989.
In the case of `C[C@@H]1CN([C@H](C)CO)C(=O)Cc2cc(NC(=O)CCN3CCOCC3)ccc2O[C@H]1CN(C)Cc1ccccc1`, the relative growth is reported as inactive: 1.01.
`C[C@@H]1CN([C@H](C)CO)C(=O)c2cc(NS(=O)(=O)c3cn(C)cn3)ccc2O[C@H]1CN(C)C(=O)Nc1ccc2c(c1)OCO2` was tested, and the relative growth was inactive: 1.02.
In the case of `C[C@H](CO)N1C[C@H](C)[C@@H](CN(C)S(=O)(=O)c2ccccc2)Oc2ccc(NC(=O)Cn3cnnn3)cc2C1=O`, the relative growth is reported as inactive: 1.01.
In the case of `CC[C@@]1(C)N[C@H](C(=O)O)CS1`, the relative growth is reported as inactive: 1.02.
For `NCC[C@@H]1CC[C@H](NC(=O)C2CC2)[C@H](CO)O1`, the relative growth was inactive: 0.995.
In the case of `Cc1ccc(S(=O)(=O)N2C[C@@H](O)COC[C@H]3O[C@H](CC(=O)NCc4ccc(Cl)c(Cl)c4)CC[C@@H]32)cc1`, the relative growth is reported as inactive: 0.99.
`C[C@H](CO)N1C[C@H](C)[C@@H](CN(C)C(=O)Nc2ccccc2)Oc2ccc(NS(=O)(=O)c3cn(C)cn3)cc2C1=O` was tested, and the relative growth was inactive: 0.978.
In the case of `C[C@@H]1CN([C@H](C)CO)C(=O)c2cc(NS(=O)(=O)c3ccc(Cl)cc3)ccc2O[C@@H](C)CCCCO[C@H]1CN(C)S(=O)(=O)c1ccccc1`, the relative growth is reported as inactive: 1.01.
With `CCS(=O)(=O)Nc1ccc2c(c1)C(=O)N(C)[C@H]1CC[C@H](CC(=O)NCCCN3CCOCC3)O[C@H]1CO2` the relative growth was inactive: 0.983.
For `CC1COc2c(C3(N)CC3)c(F)cc3c(=O)c(C(=O)O)cn1c23.CS(=O)(=O)O` (stereo not given), the relative growth was active: 0.0476.
For `CC(C)CC#Cc1ccc2c(c1)O[C@@H](CN(C)C(=O)c1ccncc1)[C@H](C)CN([C@H](C)CO)S2(=O)=O`, the relative growth was inactive: 1.02.
`C[C@@H]1CCCCO[C@@H](CN(C)C(=O)c2ccncc2)[C@H](C)CN([C@H](C)CO)C(=O)c2cc(NC(=O)C3CCCCC3)ccc2O1` was tested, and the relative growth was inactive: 1.02.
In the case of `C[C@H]1CN([C@@H](C)CO)C(=O)Cc2cc(NC(=O)CCC(F)(F)F)ccc2O[C@H]1CN(C)S(C)(=O)=O`, the relative growth is reported as inactive: 1.01.
For `CC(=O)N(C)C[C@H]1Oc2cc(C#CCN(C)C)ccc2S(=O)(=O)N([C@@H](C)CO)C[C@H]1C`, the relative growth was inactive: 0.994.
For `C[C@@H]1CN([C@@H](C)CO)S(=O)(=O)c2ccc(C#CCN(C)C)cc2O[C@H]1CN(C)C(=O)C1CCCCC1`, the relative growth was inactive: 0.975.
In the case of `C[C@@H]1CN([C@@H](C)CO)C(=O)c2cc(C#CC3(O)CCCC3)cnc2O[C@@H]1CN(C)C(=O)Cc1cccnc1`, the relative growth is reported as inactive: 0.987.
For `CC(C)N1C[C@H](C)[C@@H](CN(C)Cc2ccc(Cl)c(Cl)c2)Oc2c(cccc2-c2cn(-c3ccncc3)nn2)C1=O`, the relative growth was inactive: 1.02.
